Consider 195 variants from a collection of fitness landscapes (doi:10.1126/science.1257360).

First the molecules themselves.
B1: PhoQ; a variant is named by its letters at X, in order, P23837 (parent)
chain: MKKLLRLFFPLSLRVRFLLATAAVVLVLSLAYGMVALIGYSVSFDKTTFRLLRGESNLFYTLAKWENNKLHVELPENIDKQSPTMTLIYDENGQLLWAQRDVPWLMKMIQPDWLKSNGFHEIEADVNDTSLLLSGDHSIQQQLQEVREDDDDAEMTHSVAVNVYPATSRMPKLTIVVVDTIPVELKSSYMVWSWFIYVLSANLLLVIPLLWVAAWWSLRPIEALAKEVRELEEHNRELLNPATTRELTSLVRNLNRLLKSERERYDKYRTTLTDLTHSLKTPLXXLQXXLRSLRSEKMSVSDAEPVMLEQISRISQQIGYYLHRASMRGGTLLSRELHPVAPLLDNLTSALNKVYQRKGVNISLDISPEISFVGEQNDFVEVMGNVLDNACKYCLEFVEISARQTDEHLYIVVEDDGPGIPLSKREVIFDRGQRVDTLRPGQGVGLAVAREITEQYEGKIVAGESMLGGARMEVIFGRQHSAPKDE

The list shows a part of the results.

Variants of B1 are the subject of the test. The test is described as follows: enrichment ratio after two sorts for PhoP signalling (ratio (wild type AVST 3.29)); higher = more functional. The settings on record: with PhoP (E. coli).
As for VLKF, the enrichment ratio was no more than 0.25.
The same measure for TIWV: no more than 0.25.
Regarding VLPD, the enrichment ratio was no more than 0.25.
The same measure for YVMH: 0.338; for PHCM: no more than 0.25.
Under WLTR stands no more than 0.25; under FHPW, no more than 0.25; under NPWN, no more than 0.25.
For VVQA, the enrichment ratio is no more than 0.25.
For the variant LSLH, the enrichment ratio is no more than 0.25.
The same measure for GNHD: no more than 0.25; for FAHY: no more than 0.25.
For the variant YPQI, the enrichment ratio was no more than 0.25.
Consider RIYQ, for which the enrichment ratio was no more than 0.25.
The same measure for IRQH: no more than 0.25; for WCAG: no more than 0.25.
In the case of PESL, the enrichment ratio was no more than 0.25.
Under MGRT stands no more than 0.25; under DPLI, no more than 0.25.
Under YEWK stands no more than 0.25; under DLTT, no more than 0.25; under WKPV, no more than 0.25.
Under GNMV stands 3.49; under LPPL, no more than 0.25; under WKVN, no more than 0.25.
Consider LIVH, for which the enrichment ratio is no more than 0.25.
Under IDIR stands no more than 0.25.
Regarding DMHL, the enrichment ratio was no more than 0.25.
Take YCQW: the enrichment ratio was no more than 0.25.
Under MNPH stands no more than 0.25; under RWSI, no more than 0.25; under KVLD, no more than 0.25.
Under VGLG stands 7.34; under LDIQ, no more than 0.25.
Under NPCT stands no more than 0.25.
As for PREI, the enrichment ratio is no more than 0.25.
The same measure for FCHM: no more than 0.25; for FARN: no more than 0.25; for DDTC: no more than 0.25.
The same measure for VPEL: no more than 0.25; for ETMG: no more than 0.25; for FLRF: no more than 0.25.
The same measure for VVPD: no more than 0.25; for VPVF: no more than 0.25; for KEGH: no more than 0.25.
In the case of MEIW, the enrichment ratio is no more than 0.25.
Under GPFQ stands no more than 0.25; under EFFI, no more than 0.25; under DLGY, no more than 0.25.
As for YFQT, the enrichment ratio is no more than 0.25.
Under HSHC stands no more than 0.25; under IRCM, no more than 0.25; under INEC, no more than 0.25.
As to KLLN, the enrichment ratio is no more than 0.25.
On to LWYM, for which the enrichment ratio was no more than 0.25.
The same measure for EKVG: no more than 0.25; for GRVR: no more than 0.25; for FAPH: 2.01.
Turning to SLNL, the enrichment ratio came to 0.915.
The same measure for EYQQ: no more than 0.25.
As to QSAE, the enrichment ratio is no more than 0.25.
With VSKG, the enrichment ratio is no more than 0.25.
Under YGRY stands no more than 0.25; under QTTT, no more than 0.25.
Under HAYF stands no more than 0.25; under GNNI, no more than 0.25; under YGWH, no more than 0.25.
For the variant ACGR, the enrichment ratio is no more than 0.25.
Under RFMA stands 0.944; under TQCN, 24.9.
Under PISW stands no more than 0.25; under PCSS, no more than 0.25; under SVHV, 6.57.
The same measure for ANTS: 21.1; for SIWI: no more than 0.25.
On to WPGC, for which the enrichment ratio is no more than 0.25.
As to QSPV, the enrichment ratio is no more than 0.25.
As for MDIW, the enrichment ratio is no more than 0.25.
In the case of PKSH, the enrichment ratio was no more than 0.25.
For SKPC, the enrichment ratio was no more than 0.25.
As to RDMH, the enrichment ratio is no more than 0.25.
As to RGWF, the enrichment ratio was no more than 0.25.
The same measure for KLYH: no more than 0.25; for KFYY: no more than 0.25; for HSRE: no more than 0.25.
In the case of KFVN, the enrichment ratio is no more than 0.25.
The same measure for IFTQ: no more than 0.25; for EHHW: no more than 0.25.
In the case of LLMI, the enrichment ratio is no more than 0.25.
With FDKM, the enrichment ratio is no more than 0.25.
As for ISWS, the enrichment ratio is no more than 0.25.
As for KYGG, the enrichment ratio is no more than 0.25.
The same measure for FDIM: no more than 0.25; for FKGA: no more than 0.25.
Under YRTD stands no more than 0.25.
Under RCPL stands no more than 0.25; under TCNG, 2.84; under LMAI, no more than 0.25.
WMCY: the enrichment ratio is no more than 0.25.
With VEGY, the enrichment ratio is no more than 0.25.
Consider IPFI, for which the enrichment ratio is no more than 0.25.
Under YCLH stands no more than 0.25; under HYPC, no more than 0.25.
The same measure for YWSK: no more than 0.25; for YQCV: no more than 0.25.
Under IYSW stands no more than 0.25; under WKQP, no more than 0.25; under LPNV, no more than 0.25.
For LVYS, the enrichment ratio is no more than 0.25.
Under HLVV stands no more than 0.25; under QISY, no more than 0.25; under IFST, no more than 0.25.
Take REDT: the enrichment ratio is no more than 0.25.
In the case of EQYK, the enrichment ratio was no more than 0.25.
The same measure for NELI: no more than 0.25; for PYFG: no more than 0.25; for KFHT: no more than 0.25.
Under RYAH stands no more than 0.25; under SFPE, no more than 0.25; under SGWD, no more than 0.25.
Under IRYW stands no more than 0.25; under KIYQ, no more than 0.25; under ILRC, no more than 0.25.
Regarding PDII, the enrichment ratio was no more than 0.25.
Turning to FVKK, the enrichment ratio is no more than 0.25.
Under MDSY stands no more than 0.25; under TVVE, no more than 0.25; under TMID, no more than 0.25.
For MTCR, the enrichment ratio is no more than 0.25.
Turning to KLIY, the enrichment ratio was no more than 0.25.
With HRSF, the enrichment ratio was no more than 0.25.
MRPW: the enrichment ratio is no more than 0.25.
Under IHAR stands no more than 0.25; under AVWF, no more than 0.25; under NLGD, no more than 0.25.
Under KRAC stands no more than 0.25; under TVWC, no more than 0.25; under NTFK, no more than 0.25.
Regarding LQWA, the enrichment ratio was no more than 0.25.
As for HCKP, the enrichment ratio was no more than 0.25.
On to TNKR, for which the enrichment ratio was no more than 0.25.
The same measure for KIPM: no more than 0.25.
Under VNHV stands no more than 0.25.
The same measure for HGFM: no more than 0.25; for IQVM: no more than 0.25.
As to SMSK, the enrichment ratio amounted to 2.79.
The same measure for LMPW: no more than 0.25; for EINP: no more than 0.25; for FDGI: no more than 0.25.
Regarding STPN, the enrichment ratio is no more than 0.25.
With LVRK, the enrichment ratio was no more than 0.25.
Under RGGI stands no more than 0.25.
For the variant FYGK, the enrichment ratio was no more than 0.25.
The same measure for WDCT: no more than 0.25; for EFNI: no more than 0.25; for IYVQ: no more than 0.25.
With FNYS, the enrichment ratio was no more than 0.25.
The same measure for APFI: no more than 0.25.
The same measure for REGE: no more than 0.25; for HSGC: no more than 0.25.
Turning to KYLT, the enrichment ratio is no more than 0.25.
Under PCHA stands no more than 0.25; under DNGH, no more than 0.25; under SCGI, 12.6.
Turning to YNED, the enrichment ratio is no more than 0.25.
As for VHVG, the enrichment ratio is no more than 0.25.
The same measure for VVFH: no more than 0.25; for WNIK: no more than 0.25; for FNIL: no more than 0.25.
As to YHAE, the enrichment ratio is no more than 0.25.
The same measure for FAVQ: no more than 0.25; for INFI: no more than 0.25; for RMIV: no more than 0.25.
The same measure for KCPH: no more than 0.25; for IGLG: no more than 0.25.
With ISEQ, the enrichment ratio was no more than 0.25.
As for RDKL, the enrichment ratio is no more than 0.25.
Under NFNF stands no more than 0.25; under LSYN, no more than 0.25; under IFPN, no more than 0.25.
As for HINP, the enrichment ratio was no more than 0.25.
As for IEIY, the enrichment ratio was no more than 0.25.
Under QRHL stands no more than 0.25; under ASIE, 0.421.
As to NKMC, the enrichment ratio is no more than 0.25.
Turning to GART, the enrichment ratio is no more than 0.25.
Under PLMV stands no more than 0.25; under IQEA, no more than 0.25.
For the variant VPIK, the enrichment ratio was no more than 0.25.
As to NQMS, the enrichment ratio was no more than 0.25.
Under QTKQ stands no more than 0.25.
For the variant IQMT, the enrichment ratio is no more than 0.25.
Under CSVS stands no more than 0.25.
Regarding SCYD, the enrichment ratio is no more than 0.25.
Under SQIL stands 5.22.
